# Test results from the supplement of paper PMC3334620.
# In all, about 33,000 sequences were measured (“E-score (-0.5 to 0.5)”: median about -0.053, highest 2% from about 0.37 on). Some of the results follow.
# Target: Hap1 (UniProt P0CE41)
# Experiment: PBM E-score (8-mer binding enrichment) (E-score (-0.5 to 0.5)); higher = stronger / more preferred TF binding; most listed sequences are background and not binding sites
# Conditions: protein concentration: 200 nM; construct: GST-DNA-binding domain
# Method in brief: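 Yeast transcription factors, full-length or as DNA-binding domains, were expressed with a GST tag using PURExpress in vitro transcription/translation. At about 100-200 nM they were applied to universal all-10-mer Agilent arrays, double-stranded by primer extension on fresh or once-stripped slides. Fluorescent anti-GST detected bound protein, and masliner normalised the scans. E-scores for ungapped eight-base words, pooled with reverse complements, came from the Universal PBM Analysis Suite.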
# UniProt P0CE41, sequence (P0CE41 whole entry): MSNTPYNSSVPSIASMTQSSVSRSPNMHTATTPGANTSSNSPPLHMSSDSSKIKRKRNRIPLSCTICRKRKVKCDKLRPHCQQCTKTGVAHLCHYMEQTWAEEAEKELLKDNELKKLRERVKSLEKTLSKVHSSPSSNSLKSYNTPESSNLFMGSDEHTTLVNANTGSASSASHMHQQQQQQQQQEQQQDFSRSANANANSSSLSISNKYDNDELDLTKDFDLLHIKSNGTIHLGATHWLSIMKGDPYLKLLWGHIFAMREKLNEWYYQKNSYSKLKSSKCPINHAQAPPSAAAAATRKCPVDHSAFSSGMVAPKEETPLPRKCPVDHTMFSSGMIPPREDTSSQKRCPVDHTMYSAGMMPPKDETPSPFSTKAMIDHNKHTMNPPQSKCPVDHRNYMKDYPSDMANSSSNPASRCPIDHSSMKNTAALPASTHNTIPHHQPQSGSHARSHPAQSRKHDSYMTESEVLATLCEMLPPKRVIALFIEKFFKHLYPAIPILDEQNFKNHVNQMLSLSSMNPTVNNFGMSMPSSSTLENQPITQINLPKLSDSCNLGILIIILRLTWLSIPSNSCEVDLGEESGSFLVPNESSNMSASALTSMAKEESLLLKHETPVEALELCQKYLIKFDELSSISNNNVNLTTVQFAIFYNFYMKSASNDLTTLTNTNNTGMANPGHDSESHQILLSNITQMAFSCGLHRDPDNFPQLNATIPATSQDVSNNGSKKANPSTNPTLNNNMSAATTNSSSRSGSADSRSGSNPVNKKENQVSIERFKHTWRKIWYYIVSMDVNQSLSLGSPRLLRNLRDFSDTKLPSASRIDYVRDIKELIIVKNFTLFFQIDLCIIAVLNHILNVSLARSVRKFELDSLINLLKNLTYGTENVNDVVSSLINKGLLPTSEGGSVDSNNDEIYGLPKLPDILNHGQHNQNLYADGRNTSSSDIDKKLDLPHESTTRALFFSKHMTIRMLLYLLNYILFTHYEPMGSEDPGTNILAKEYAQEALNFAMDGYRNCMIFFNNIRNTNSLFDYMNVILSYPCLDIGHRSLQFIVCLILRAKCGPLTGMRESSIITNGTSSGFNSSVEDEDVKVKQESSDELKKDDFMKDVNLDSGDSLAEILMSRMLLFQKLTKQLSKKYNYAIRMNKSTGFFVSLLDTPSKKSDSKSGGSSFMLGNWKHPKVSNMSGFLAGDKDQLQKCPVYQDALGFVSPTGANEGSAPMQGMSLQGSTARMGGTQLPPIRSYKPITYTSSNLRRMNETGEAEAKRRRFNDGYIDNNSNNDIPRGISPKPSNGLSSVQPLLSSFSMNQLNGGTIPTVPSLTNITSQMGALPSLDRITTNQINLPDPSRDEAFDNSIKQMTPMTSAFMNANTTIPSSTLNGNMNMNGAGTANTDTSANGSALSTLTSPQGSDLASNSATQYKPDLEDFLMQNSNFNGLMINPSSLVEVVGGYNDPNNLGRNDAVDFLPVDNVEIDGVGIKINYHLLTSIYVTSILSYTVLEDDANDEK
row,Sequence,PBM E-score
1,AAGTGCGC,0.0992
2,GTATAAAC,0.0429
3,GGAGCCTA,0.184
4,CATAAGAA,-0.0413
5,CGAGCTAC,0.0494
6,TACGGTCA,0.181
7,AGGTTGCG,-0.192
8,ACCGTTGC,0.0924
9,TCGCGGCA,0.213
10,CCTACGGC,0.103
11,CACGACTG,-0.209
12,ATGCGATC,0.0509
13,CATTAATC,-0.0216
14,AGGACCAT,-0.149
15,GGAGGTCA,0.0182
16,GATCATAA,-0.0574
17,AGTCCTAC,-0.0298
18,AAACATAC,-0.169
19,TCACGGGA,0.0121
20,AGATACAT,-0.166
21,TGACAAAA,-0.195
22,TGCGCCCA,-0.128
23,AACTGTGA,-0.0694
24,CCCGTCAG,-0.0937
25,GGAAAGTA,0.108

row,Sequence,PBM E-score
1,ACCCCTCA,-0.108
2,GAACCTGA,-0.163
3,CAGCTTAA,-0.153
4,GGACAACA,0.00082
5,ACCTTCGA,-0.0571
6,ACACGACT,-0.267
7,CATCGCAA,-0.282
8,ATACATAG,-0.109
9,CATGACAG,-0.164
10,AACTTCAA,-0.124
11,ATAAAACC,0.257
12,CTACGCGA,-0.0275
13,ATAAGAGA,0.0842
14,GTGAAATA,-0.106
15,GGACACCC,0.0443
16,GCAAGCGC,0.134
17,AAATGAGT,0.0754
18,ACGAAAGT,-0.0811
19,AACCAATC,0.0867
20,AAGCGAGC,0.0984
21,TGGACCCA,-0.109
22,TAAGCCCA,-0.143
23,AACGTCCC,-0.179
24,CCAGCTAC,-0.273
25,CGATCGCC,0.12

row,Sequence,PBM E-score
1,GAAGTACA,-0.0425
2,CACGCTAC,-0.158
3,AAAGGAGC,-0.141
4,GGGTCGGA,0.32
5,ACTGGTGG,-0.272
6,GAACCTCA,-0.0572
7,GTGGACAA,0.0197
8,CGAGTGTC,0.00359
9,AAGGGTCC,0.2
10,CTATTACA,-0.0557
11,CAGCTTTA,-0.117
12,AGCGCCTA,0.00034
13,CGGGTGTC,0.15
14,ACTAGCCA,-0.214
15,AAGACTCC,-0.207
16,ATAGCCTC,0.0385
17,AAACTTGG,-0.113
18,TGTCAACA,-0.12
19,GCCGGATA,0.426
20,GGGTTTCA,0.148
21,GGTCCCGA,0.231
22,CGCGCTAC,0.0831
23,ATGTAACC,0.127
24,CAGACAAC,0.0282
25,ACACGGAG,0.295

row,Sequence,PBM E-score
1,CTCTTTCC,0.0348
2,CCTACTGA,-0.267
3,ACTCGGTG,0.151
4,GCACCGTA,0.0692
5,AATGATGT,-0.0372
6,GAAGCCTC,-0.157
7,TGAGTCCA,-0.0827
8,GCCTTACC,0.0429
9,AGTTCCGG,0.394
10,AACTACAA,0.0185
11,GGTGCGGA,0.214
12,ACTCAGAG,-0.103
13,TAGACATA,-0.16
14,AGACTCAT,-0.231
15,CGCACAAA,0.123
16,ACGAACCT,-0.0872
17,ATTCGGAA,0.311
18,CTAGTATA,-0.149
19,AGGGTACT,-0.218
20,ATCCAGCG,0.116
21,CAAGTGGC,-0.22
22,GCCAAGAA,-0.0284
23,TCTCAAAA,-0.106
24,CACCTGAC,-0.174
25,ATAAGCTG,-0.113

row,Sequence,PBM E-score
1,ATTCGGGG,0.393
2,CGGCTCCC,0.12
3,CGCGCTTC,0.0627
4,GGAGTAAA,0.183
5,ATCGCGCC,0.22
6,AACAGCTT,-0.106
7,GGTTAGGA,-0.136
8,AACCATAT,-0.189
9,CGGAGCGA,0.331
10,TATCTCCA,0.339
11,CTATACAC,-0.309
12,CTACTTGC,0.0605
13,AGAGGACG,-0.178
14,CCTGCCAA,-0.128
15,AACTAGCT,-0.211
16,ATGCGTTC,0.0351
17,ATCGGAGA,0.415
18,GAACGGCC,0.302
19,AGTGCTAG,-0.227
20,AATCTGTC,-0.0323
21,GTGAACAA,-0.131
22,ACGATACA,-0.216
23,ACTACCCC,0.0561
24,AAACAGGG,-0.308
25,AAGTCCTA,0.0348

row,Sequence,PBM E-score
1,ACCCCGAA,0.377
2,AAAGACGC,-0.0347
3,ACGCTTGC,-0.152
4,CCTATCAA,-0.119
5,CAGCGGCG,0.109
6,TACTTAAA,-0.0354
7,CGCAGGAA,0.0505
8,AACGCTGA,-0.121
9,TGTAAAAA,-0.146
10,CAGGATGA,-0.232
11,CGCCGCAA,0.275
12,CGATTGCC,0.102
13,AGTGCACG,-0.144
14,CAATATGC,-0.0574
15,AGGTTTTA,0.0786
16,ATCGCGTC,0.109
17,ACTTGACT,-0.132
18,CGCTCCTA,-0.107
19,AGCAAAAG,-0.211
20,CCTAGAAA,-0.00065
21,AAGTGTAT,-0.251
22,CTCGATAC,-0.14
23,TCCCTGAA,-0.23
24,CTAGTCTA,-0.377
25,AACTCTAT,0.0885

row,Sequence,PBM E-score
1,AAATTCGT,0.0977
2,CCCGGTAA,0.387
3,ACTACTAA,-0.0511
4,AATCTTTA,-0.0648
5,ACCAGTTG,-0.0814
6,AACCAGGA,-0.0608
7,TAGCAAAA,0.121
8,GTGACCAC,-0.0879
9,CTACCATA,-0.191
10,CCTAGACC,-0.237
11,AAAAGCTC,0.104
12,CGTGTAAA,-0.0672
13,CTATAGAG,-0.188
14,CCTTGGTC,-0.176
15,CGCCACGC,-0.0605
16,CACCAAAC,-0.252
17,ACACGCAT,-0.0767
18,ATTACTTG,-0.182
19,ATGCGCTG,-0.0868
20,CCCGTGGA,0.154
21,GAGGAACA,-0.0107
22,CCCCCCAA,-0.161
